Measurements as given in PubChem BioAssay AID485344 (National Center for Advancing Translational Sciences (NCATS), 2010).
Values joined by “and” are separate entries in the source; they are usually repeats but may differ in a detail not shown here. Equal values may be shown once. Hit rate of the full screen: of about 340,000 compounds, about 6,900 (2%) were called active. No stated cut-off is given here; in the data, active means inhibition above about 30%; inactive means below that, where a call was filed. Only a part is listed here, and it is no random draw. Where no call is shown, the source filed none. Some compounds were tested as several samples or in several runs, with calls that do not always agree.

biological target: D(2) dopamine receptor (Homo sapiens) (UniProt P14416); test: HTS Assay for Allosteric Antagonists of the Human D2 Dopamine Receptor: Primary Screen for Antagonists; conditions: HEK293 TREx D2 cells, calcium flux, dopamine EC80; at 10 µM; stronger effect = higher value; further: 0% is about no effect
Text: NIH Chemical Genomics Center [NCGC] NIH Molecular Libraries Probe Centers Network [MLPCN] MLPCN Grant: NS064831-01 Assay Submitter (PI): David Sibley Dopamine receptors (DARs) are involved in the etiology and/or therapy of a number of neuropsychiatric and endocrine disorders. For instance, all receptor-based antiparkinsonian drugs work via stimulating the D2 DAR subtype whereas all FDA-approved antipsychotic agents are antagonists of this receptor. […] There are three different types of allosteric modulators that we are seeking, two of which will stimulate or augment receptor signaling, allosteric agonists and potentiators, while the third, allosteric antagonists, will attenuate receptor signaling. The present primary screening assay measures compound antagonism after an EC80 addition of dopamine by tracking calcium flux in a […], inducible Hek293 Trex D2 cell line.
Freshly passaged cells are plated in 1536 well black, clear bottom plates at a density of 4000 cells/well in 3 ul of complete media containing 1x tetracycline inducer. After an overnight incubation at 30 C in 5% CO2, cells are loaded with 2 ul of the no wash Calcium Assay Kit (ABD Bioquest) and incubated at room temperature for 30 to 90 minutes. Agonist read: A 10 cycle (1 second/cycle) baseline measurement is taken and then the FDSS online 1536 pintool delivers 23 nl of compound library (as well as dopamine controls) to the plate. The plate is measured for kinetically at 1 cycle/sec for 180 seconds. Following the 180 second read, 1 ul of an EC80 (negative modulation assay) is delivered by an onboard pipette head. Measurements are taken kinetically for an additional 180 seconds.

UniProt P14416, sequence (P14416 whole entry, looked up): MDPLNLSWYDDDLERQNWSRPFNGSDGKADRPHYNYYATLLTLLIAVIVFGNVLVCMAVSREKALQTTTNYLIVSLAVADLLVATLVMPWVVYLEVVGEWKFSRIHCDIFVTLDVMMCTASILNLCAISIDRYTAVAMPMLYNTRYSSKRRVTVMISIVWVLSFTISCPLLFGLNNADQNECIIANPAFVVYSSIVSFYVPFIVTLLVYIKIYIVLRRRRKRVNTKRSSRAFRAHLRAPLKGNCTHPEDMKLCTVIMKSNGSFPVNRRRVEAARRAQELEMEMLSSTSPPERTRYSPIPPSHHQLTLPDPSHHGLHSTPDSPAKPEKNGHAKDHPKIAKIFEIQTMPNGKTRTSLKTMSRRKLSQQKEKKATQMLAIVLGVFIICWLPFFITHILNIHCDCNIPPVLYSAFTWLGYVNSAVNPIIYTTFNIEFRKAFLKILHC

Row | SMILES | inhibition
1 | c1ccc(CNCCc2c[nH]c3ccccc23)cc1 | active: 60.5%
2 | Cn1c(O)c(C=Nc2ccc(F)cc2)c(=O)[nH]c1=O | active: 35.3%
3 | O=S1(=O)N(Cc2ccccc2Cl)CCCN1Cc1ccccc1Cl | -2.03%
4 | COc1ccc(NC(=O)CCc2nc(C3=CCN(Cc4cccc(Cl)c4)CC3)no2)c(OC)c1 | 23.6%
5 | O=C(Nc1ccc2c(c1)OCO2)c1cccn(Cc2cccc([N+](=O)[O-])c2)c1=O | -18.2%
6 | CCn1cc(C(=O)O)c(=O)c2ccc(C)nc21 | active: 40.7%
7 | Cc1ccccc1OCC(=O)N1CCN(CCc2ccccn2)CC1 | 13.3%
8 | CC1(C)OC(c2ccccc2)=C/C(=C/C=C2C(=O)NC(=S)NC2=O)O1 | active: 63%
9 | C[C@H]1CCC[C@H](O)CCCCCc2cc(O)cc(O)c2C(=O)O1 | active: 32.4%
10 | COc1cccc(C2SCC(=O)Nc3c2c(C)nn3-c2ccc(C)c(Cl)c2)c1OC (stereo not given) | -16.5%
11 | O=c1c2ccccc2nc(/C=C/c2ccccc2F)n1-c1cccc(O)c1 | -1.84%
12 | COc1ccccc1CN1CCN(Cc2ccc(Cl)cc2)CC1 | active: 76.4%
13 | Cc1cccc(-n2nc(C)c3c2NC(=O)CSC3c2ccccc2Cl)c1 (stereo not given) | -2.37%
14 | Cc1cc(NCCN)nc2ccccc12 | active: 57.8%
15 | CC(C)Cc1nc2cccnc2n1C1CCNCC1 | 6.58%
16 | CCOc1ccc(CN(CCc2ccc3c(c2)OCO3)Cc2ccc(C)cc2)cc1 | -4.3%
17 | Cc1ccc(NC(=O)Cn2cc(C(=O)c3ccccc3)c3ccccc32)c(C)c1 | -2.6%
18 | OC(CCNCCc1c[nH]c2ccccc12)C(F)(F)Cl (stereo not given) | active: 52.7%
19 | COc1ccccc1N1CCN(Cc2ccc(Cl)cc2Cl)CC1 | active: 34.7%
20 | COc1ccc(-n2c(/C=C/c3cccc(F)c3)nc3ccccc3c2=O)cc1Cl | 11.5%
21 | Cc1cccc(CN2C(=O)CN=C(c3ccccc3)c3ccccc32)c1 | -9.61%
22 | CCN1CC=C(c2c[nH]c3ccccc23)CC1 | active: 82.7%
23 | Cc1ccc(-c2cc(-c3ccc(C)cc3)[n+](-c3ccccc3)c(-c3ccc(C)cc3)c2)cc1 | active: 48.9%
24 | CCCCC12CN3CC(C)(CN(C1)C3c1ccccn1)C2=O (stereo not given) | 2.66%
25 | Cc1ccc(-c2nc(CN3C(=O)CN=C(c4ccccc4)c4ccccc43)c(C)o2)cc1 | 9.17%

Row | SMILES | inhibition
26 | CCN(CC)C(=O)c1ccc(NC(=O)c2ccc(-c3nn(C)c(=O)c4ccccc34)cc2)cc1 | -5.35%
27 | CN1/C(=C\C=C2C(=O)NC(=S)NC2=O)C(C)(C)c2ccccc21 | active: 30.6%
28 | Cc1ccc(Cn2cccc(C(=O)Nc3ccc4c(c3)OCCO4)c2=O)cc1 | 13%
29 | Clc1cccc(N2CCNCC2)c1Cl | active: 35%
30 | COc1ccccc1C1SCC(=O)Nc2c1c(C)nn2-c1cccc(C)c1 (stereo not given) | 18.4%
31 | CCC1(C)OC(c2ccccc2)=C/C(=C/C=C2C(=O)NC(=O)NC2=O)O1 (stereo not given) | active: 43.3%
32 | Cc1ccc(CN2C3CCCC2CC(NC(=S)NCc2ccccc2)C3)cc1 (stereo not given) | active: 104%
33 | CCCC12CN3CC(C)(CN(C1)C3c1c(C)[nH]c(=O)[nH]c1=O)C2=O (stereo not given) | 12.9%
34 | CCCC1=Nc2cc(C(=O)NCCCN(CC)CC)ccc2Sc2ccccc21 | -6.29%
35 | COc1ccc(Br)cc1C1SCC(=O)Nc2c1c(C)nn2-c1ccccc1C (stereo not given) | 24.3%
36 | Cc1ccc(-c2nn3c(=O)cc(CN4CCN(C(=O)COc5ccc(C)c(C)c5)CC4)nc3s2)cc1 | -2.79%
37 | Cc1ccc(Cn2cccc(C(=O)Nc3cc(C)on3)c2=O)cc1 | -0.476%
38 | Cc1c(C(c2ccc(Br)cc2)c2c(O)c3ccccc3oc2=O)c(=O)n(-c2ccccc2)n1C (stereo not given) | -20.4%
39 | COC(=O)C1=C(c2ccccc2OCc2ccccc2)C[C@@H]2CC[C@H]1N2C(=O)NC1CCN(Cc2ccccc2)CC1 | active: 59.5%
40 | CN(C)c1ccc(NC(=O)c2sc3nc4c(cc3c2N)N2CCC4CC2)cc1 | -3.7%
41 | COc1ccc(OCC(=O)N2CCN(CCc3ccncc3)CC2)cc1 | -0.576%
42 | NNC(N)=O | active: 30.5%
43 | Cc1ccccc1-n1c(/C=C/c2c(C)[nH]c3ccccc23)nc2ccccc2c1=O | -3.33%
44 | CN1CCN(c2nc(N)c(Br)c(Cl)n2)CC1 | active: 68.6%
45 | COc1ccccc1N1CCN(Cc2ccccc2F)CC1 | active: 80.6%
46 | Cc1ccccc1-n1nc(C)c2c1NC(=O)CSC2c1ccc(Cl)cc1 (stereo not given) | 6.67%
47 | Cc1ccc(C(C)C)c(OCC(=O)N2CCN(CCc3ccncc3)CC2)c1 | -14.1%
48 | NCCc1ccc(O)cc1 | active: 46.6%
49 | COCCCn1c(N)c(C(=O)OC(C)COC)c2nc3ccccc3nc21 (stereo not given) | active: 42.5%
50 | O=C1NC(=O)N(c2ccccc2F)C(=O)/C1=C/c1ccc(Sc2nc3ccccc3[nH]2)o1 | active: 44%

Row | SMILES | inhibition
51 | Cc1ccc(C(=O)Nc2ccccc2)cc1S(=O)(=O)N1CCCC1 | 7.35%
52 | CC1(C)Cc2c(sc3c2C(=O)NC(c2cccnc2)N3)CO1 (stereo not given) | active: 69.5%
53 | COC(=O)C1C=C2c3cccc4[nH]cc(c34)CC2N(C)C1 (stereo not given) | active: 61.9%
54 | Cc1ccc(CN2C3CCCC2CC(NC(=O)Nc2cccc(F)c2)C3)cc1 (stereo not given) | active: 75%
55 | CCOc1ccc(CN(CCc2ccc3c(c2)OCO3)Cc2ccc(OC)c(Br)c2)cc1 | -10.1%
56 | CCOc1ccc2nc(NC(=O)c3cccn(Cc4ccccc4Cl)c3=O)sc2c1 | 11.4%
57 | Cc1ccccc1CN1C(=O)C(C)N=C(c2ccccc2)c2ccccc21 (stereo not given) | -4.43%
58 | Fc1ccc(C(OCCN2CCCC2)c2ccc(Br)cc2)cc1 (stereo not given) | active: 47%
59 | Cc1ccsc1C(=O)C1CCCN(Cc2cc(C(C)C)n[nH]2)C1 (stereo not given) | active: 80.4%
60 | Cc1ccc(OCC(=O)Nc2ccc(Cl)cc2C(=O)c2ccccc2)cc1C | 1.65%
61 | Clc1ccccc1CN1CCN(c2ccccc2)CC1 | active: 68.2%
62 | O=C(CNC(=O)c1ccc(Cl)cc1)Nc1ccc(Br)cc1C(=O)c1ccccc1 | active: 34.4%
63 | CNC(C)Cc1ccccc1Sc1ccc(O)cc1 (stereo not given) | active: 67.4%
64 | COc1cccc(-c2nn3c(=O)cc(CN4CCN(C(=O)COc5ccccc5C)CC4)nc3s2)c1 | -8.11%
65 | C#CC1(O)CCC2C3CCC4=C/C(=N/OCC(=O)NCC(=O)NC(C(=O)O)C(C)C)CC[C@]4(C)C3CC[C@@]21C (stereo not given in full) | active: 60.4%
66 | CC(C)NC(C)C(=O)c1ccc2ccccc2c1 (stereo not given) | active: 46%
67 | COc1cc(C)c(CN2CC=C(c3ccc(F)cc3)CC2)cc1C | active: 83.9%
68 | Cc1ccc2c(c1)C1CN(C)CCC1N2C(=O)/C(C#N)=C/c1ccc2c(c1)OCO2 (stereo not given) | active: 47.7%
69 | COc1ccccc1N1CCN(Cc2ccc(Br)s2)CC1 | active: 84.9%
70 | Cc1nnc(NC(=O)c2cccn(Cc3cccc(F)c3)c2=O)s1 | -25.8%
71 | CNc1ccc2oc(C[C@H]3O[C@@]4(CC[C@H]3C)O[C@H]([C@H](C)C(=O)c3ccc[nH]3)[C@H](C)C[C@H]4C)nc2c1C(=O)O | active: 62.5%
72 | COc1ccc(CN2CCN(c3ccccc3F)CC2)c(OC)c1 | active: 76.4%
73 | COc1ccc(OCC(=O)N2CCN(Cc3ccc(SC)cc3)CC2)cc1 | -0.996% and active: 45.6%
74 | O=C(c1ccc2c(c1)N(Cc1ccc(F)cc1)C(=O)c1ccccc1S2)N1CCC2(CC1)OCCO2 | -0.267%
75 | Cc1ccccc1-n1c(/C=C/c2ccc(N(C)C)cc2)nc2ccccc2c1=O | -24.9%

Row | SMILES | inhibition
76 | Cc1cccc(CN2CCN(c3ccc(Cl)cc3)CC2)c1 | active: 34.3%
77 | Cc1cccc(Cn2cccc(C(=O)Nc3ccc(F)cc3F)c2=O)c1 | -16.1%
78 | Cc1ccnc(-n2c(-c3ccccc3)nc3ccccc3c2=O)c1 | active: 33%
79 | Cc1ccc(OCC(=O)N2CCN(CCc3ccncc3)CC2)cc1 | 5.07%
80 | COc1ccccc1CN1CCN(C(=O)COc2ccccc2)CC1 | active: 33%
81 | Cc1ccc(Cn2cccc(C(=O)Nc3nc4ccc(C)cc4s3)c2=O)cc1 | 16.1%
82 | COc1ccccc1N1CCN(Cc2cnc(-c3ccccc3)[nH]2)CC1 | active: 57.1%
83 | COc1ccc(NC(=O)CN2C(=O)C(C)N=C(c3ccccc3)c3ccccc32)cc1OC (stereo not given) | -1.42%
84 | O=P(CN1CCN(c2ccccc2)CC1)(N1CCCCC1)N1CCCCC1 | active: 36.5%
85 | CCc1ccc(-n2nc(C)c3c2NC(=O)CSC3c2ccccc2C)cc1 (stereo not given) | -1.57%
86 | Cc1ccc(OCC(=O)Nc2ccc(Cl)cc2C(=O)c2ccccc2)c(Br)c1 | -14.4%
87 | COC(=O)C1=C(c2ccc(OCc3ccccc3)cc2)C[C@@H]2CC[C@H]1N2C(=O)NC1CCN(Cc2ccccc2)CC1 | active: 69.8%
88 | CSc1ccc(C(=O)C2CCCN(CCCn3cccn3)C2)cc1 (stereo not given) | active: 35.9%
89 | COc1ccccc1N1CCN(Cc2ccc(Br)cc2)CC1 | active: 93.7%
90 | N#Cc1cc2c(nc1SCC(=O)Nc1cccc(C(F)(F)F)c1)C1CCN2CC1 | -10.1%
91 | COc1ccc(C(c2c(O)c3ccccc3oc2=O)c2c(C)n(C)n(-c3ccccc3)c2=O)cc1 (stereo not given) | active: 93.3% and 3.36%
92 | CCSc1nnc(NC(=O)c2cccn(Cc3ccccc3Cl)c2=O)s1 | 1.93%
93 | CCOc1ccccc1NC(=O)c1cccn(Cc2ccccc2C)c1=O | 22.5%
94 | CC(=O)c1cccc(NC(=O)c2cccn(Cc3cccc(C)c3)c2=O)c1 | 22.2%
95 | COc1ccc(F)cc1C(=O)C1CCCN(Cc2ccc(O)cc2)C1 (stereo not given) | active: 71.7%
96 | Cc1nc2ccccc2c(=O)n1-c1ccccn1 | active: 35.1%
97 | O=C1c2ccccc2C(=O)N1Cc1nc2ccccc2c(=O)n1-c1ccccn1 | active: 31.2%
98 | Cc1ccccc1N1CCN(Cc2ccc3c(c2)OCO3)CC1 | active: 83%
99 | CCOC(=O)C(NC(=O)CC)(Nc1ccc(C(O)(C(=O)OCC)C(F)(F)F)cc1C)C(F)(F)F (stereo not given) | active: 34.2%
100 | Cc1ccc(NC(=O)CN2C(=O)CN=C(c3ccccc3)c3ccccc32)cc1Cl | 5.01%
